# Measurements from PubChem BioAssay AID1347428 (National Center for Advancing Translational Sciences (NCATS), 2020).
# Screen size: about 91,000 compounds; about 290 (0.32%) were called active. Inconclusive means that the source gave no clear call. Such entries were picked first, then a sample of the others. The call rests on the fitted dose curve; in most records, active means well fitted inhibition curve with a large enough effect; inconclusive means small, poorly fitted or top-dose-only effect; inactive means no such curve, though single readings can be large or run the other way. Potencies of inconclusive entries are doubtful fits and often do not repeat.
# Target: Single-stranded DNA cytosine deaminase (Homo sapiens) (UniProt Q9GZX7)
# UniProt Q9GZX7, sequence (Q9GZX7 whole entry, looked up): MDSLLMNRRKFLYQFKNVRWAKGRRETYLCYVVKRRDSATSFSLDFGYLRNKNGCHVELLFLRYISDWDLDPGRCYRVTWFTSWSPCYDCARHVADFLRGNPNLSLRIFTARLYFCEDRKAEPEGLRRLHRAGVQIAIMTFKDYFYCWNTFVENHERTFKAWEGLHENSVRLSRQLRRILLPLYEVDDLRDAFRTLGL
# Experiment: Primary qHTS assay for inhibitors of Activation Induced Cytidine Deaminase (AID): AID signal; further: nearly all actives have a fitted effect of over 25% in size
# Conditions: AID deamination FRET fluorescence, UDG-coupled, 4 h; series mostly up to 115 µM
# Potency means the concentration at half of the fitted maximal effect; tags describe the fitted curve by direction and shape.
row,SMILES,Potency
1,CCc1noc(-c2ccc(N(C)Cc3ccc(OC)cc3)c([N+](=O)[O-])c2)n1,"inconclusive: 70.8 µM [inhibitor, partial curve, poor fit]"
2,CCOc1ccc(CCNC(=O)c2sc3ncccc3c2-n2c(C)ccc2C)cc1,"inconclusive: 44.7 µM [inhibitor, partial curve, poor fit]"
3,Cn1cc(S(=O)(=O)N2CCC(C(=O)Nc3cccc(F)c3)CC2)cc1C(N)=O,inactive
4,COc1ccc(OC)c(NC(=O)N2CCC(N3CCN(Cc4ccc(F)cc4)C(=O)C3=O)CC2)c1,"inconclusive: 100 µM [inhibitor, single point]"
5,CCCN(C(=O)c1sc2nc3n(c(=O)c2c1C)CCCC3)c1ccccc1C,"inconclusive: 79.4 µM [inhibitor, partial curve, poor fit]"
6,CCCCn1nc(C(=O)Nc2ccc(Br)cc2)c2ccccc2c1=O,inactive
7,COc1ccc(Cn2ccc3nc(C)c(C(=O)N4CCN(c5cc(C)ccc5C)CC4)cc3c2=O)cc1,"inconclusive: 22.4 µM [inhibitor, full curve, poor fit]"
8,Cc1c(CO)[nH]c2ccc(Br)cc12,inactive
9,COc1ccc(/C=C/c2nc(C#N)c(NCCCn3ccnc3)o2)cc1OC,"inconclusive: 89.1 µM [inhibitor, single point]"
10,COc1ccc(/C=C/c2onc(C)c2S(=O)(=O)N2CCC(C(=O)N3CCCCC3)CC2)cc1,"inconclusive: 8.91 µM [inhibitor, full curve, poor fit]"
11,COc1ccc(NC(=O)CCCc2nnc3n(CCC(C)C)c(=O)c4sccc4n23)cc1Cl,"inconclusive: 89.1 µM [inhibitor, single point]"
12,Cc1ccc(-c2noc(CSc3nnc(C)n3-c3ccc(C)cc3)n2)cc1,"inconclusive: 79.4 µM [inhibitor, partial curve, poor fit]"
13,O=C(CS(=O)(=O)c1nc(-c2ccc(Cl)cc2)cn1-c1ccccc1)Nc1ccc(F)cc1F,"inconclusive: 44.7 µM [inhibitor, partial curve, poor fit]"
14,O=C(CCSCc1ccccc1Cl)N1CCN(c2ccc(F)cc2)CC1,"inconclusive: 22.4 µM [inhibitor, full curve]"
15,CCCc1cc(C(=O)Nc2c(C)nn(Cc3ccc(Cl)c(Cl)c3)c2C)no1,"inconclusive: 89.1 µM [inhibitor, single point]"
16,CCONC(=O)C(NC(=O)Cc1ccc2ccccc2c1)C(C)C (stereo unspecified),inactive
17,COc1ccc(-c2ccc(CCC(=O)O)n2CC(=O)Nc2cccc(C(F)(F)F)c2)cc1,"inconclusive: 39.8 µM [inhibitor, single point]"
18,COc1ccc(-c2cn3c(n2)sc2cc(C(=O)Nc4cc(OC)cc(OC)c4)ccc23)cc1,inactive
19,CCCCc1cc(=O)oc2cc(OCC(=O)N3CCC(C(=O)NCCCO)CC3)ccc12,inactive
20,CCOC(=O)CSc1nc2ccc(NC(=O)COc3ccccc3C)cc2s1,inactive
21,O=C(Oc1ccc(Cl)c(OC(=O)c2ccc(F)cc2)c1)c1ccc(F)cc1,inactive

row,SMILES,Potency
1,CCc1ccc(CN(C(=O)c2cc(=O)c3ccc(C)cc3o2)C2CCS(=O)(=O)C2)cc1 (stereo unspecified),"inconclusive: 20 µM [inhibitor, full curve, poor fit]"
2,COc1ccc(CNC(=O)C=C(C)C)cc1,inactive
3,Cc1ccc(-c2cn(-c3ccc(Cl)cc3)c(S(=O)(=O)CC(=O)Nc3ccccc3)n2)cc1,"inconclusive: 31.6 µM [inhibitor, partial curve, poor fit]"
4,COc1ccc(-n2cnc3c2NC(=O)CC3c2cc(OC)c3c(c2OC)OCO3)cc1 (stereo unspecified),"inconclusive: 79.4 µM [inhibitor, partial curve]"
5,Cc1ccc(CN2CCCn3nc(C(=O)NCC(C)c4ccccc4)cc3C2=O)cc1 (stereo unspecified),"inconclusive: 39.8 µM [inhibitor, single point]"
6,COc1ccc(-c2noc(CN(C(=O)c3cc(OC)c(OC)cc3OC)C(C)C)n2)cc1,"inconclusive: 28.2 µM [inhibitor, partial curve, poor fit]"
7,CCc1ccc(C2c3c(-c4ccccc4)n[nH]c3C(=O)N2c2ccc(C(=O)O)cc2)cc1 (stereo unspecified),"inconclusive: 89.1 µM [inhibitor, single point]"
8,Cc1cc(C)cc(OCCSc2nc(-c3cccs3)nc3cc(=O)[nH]n23)c1,"inconclusive: 39.8 µM [inhibitor, single point]"
9,Cc1ccc(CN(C)CC(=O)NC(=O)NCc2ccco2)cc1,inactive
10,COc1ccc(Oc2coc3cc(OC(=O)c4ccc5c(c4)OCO5)ccc3c2=O)cc1,inactive
11,CCn1cc(C(=O)NCCc2ccccc2)c(=O)c2cc(S(=O)(=O)N3CCc4ccccc4C3)ccc21,"inconclusive: 10 µM [inhibitor, partial curve, poor fit]"
12,COc1cc(SC)ccc1C(=O)N1CCC(Cc2ccccc2)CC1,"inconclusive: 56.2 µM [inhibitor, partial curve, poor fit]"
13,CCOC(=O)c1c(C)oc2nc(C)nc(N3CCN(c4cccc(C(F)(F)F)c4)CC3)c12,active: 14.1 µM
14,CC#C[C@]1(O)CC[C@H]2[C@@H]3CCC4=CC(=O)CCC4=C3[C@@H](c3ccc(N(C)C)cc3)C[C@@]21C,"inconclusive: 50.1 µM [inhibitor, partial curve]"
15,Cc1c(C(=O)NCc2ccc(OC(C)C)cc2)sc2ncnc(N(C)C3CCCCC3)c12,"inconclusive: 31.6 µM [inhibitor, partial curve, poor fit]"
16,Cc1nn(C(C)C)cc1N,inactive
17,COc1ccc(C(=O)Nc2nc3cc(OC)c(OC)cc3c(=O)[nH]2)cc1,"inconclusive: 44.7 µM [inhibitor, partial curve]"
18,CCOc1ccc(-c2noc(CSc3nnc(Cc4ccccc4)n3-c3ccc(F)cc3)n2)cc1,"inconclusive: 35.5 µM [inhibitor, full curve, poor fit]"
19,COc1ccccc1CCNC(=O)C1CCN(c2nc(Cl)nc3nc[nH]c23)CC1,inactive
20,CCC(CC)NC(=O)COc1ncnc2ccc(Br)cc12,inactive
